According to patent US20070218061A1:

Biological target: HeV and NiV F and G envelope glycoproteins (on effector cells)
Experiment: cell-based or functional assay

B1: B2EC-FC (Fc fusion)
chain: IVLEPIYWNSSNSKFLPGQGLVLYPQIGDKLDIICPKVDSKTVGQYEYYKVYMVDKDQADRCTIKKENTPLLNCAKPDQDIKFTIKFQEFSPNLWGLEFQKNKDYYIISTSNGSLEGLDNQEGGVCQTRAMKILMKVGQDASSAGSTRNKDPTRRPELEAGTNGRSSTTSPFVKPNPGSSTDGNSAGHSGNNILGSEVDP[human IgG1 Fc not spelt out]
For B1, the % fusion (cell fusion assay), 0.1 µg/ml inhibitor was 84%, the % fusion (cell fusion assay), 1.0 µg/ml inhibitor was 96% and the % fusion (cell fusion assay), 10 µg/ml inhibitor was 30.7%. It also gave a % fusion (cell fusion reporter gene assay, beta-Gal), 10 µg/ml protein of 15.2%.
